# In the supplement of paper PMC3334620:
# The full ranking holds about 33,000 sequences; the median of “E-score (-0.5 to 0.5)” is about -0.016, and the highest 2% start at about 0.31. The list shows a part of the results.
# Biological target: Cst6 (UniProt P40535)
# Experiment: PBM E-score (8-mer binding enrichment) (E-score (-0.5 to 0.5)); higher = stronger / more preferred TF binding; most listed sequences are background and not binding sites
# Conditions: protein concentration: 200 nM; construct: GST-DNA-binding domain
# In short: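 Using PURExpress in vitro transcription/translation, GST-tagged yeast transcription factors were made in full-length or DNA-binding-domain form. These were applied at about 100-200 nM to double-stranded universal all-10-mer Agilent arrays, and bound protein was detected with fluorescent anti-GST. Scans were normalised with masliner before the Universal PBM Analysis Suite assigned E-scores to ungapped eight-base words pooled with their reverse complements.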
row,Sequence,PBM E-score
1,CTAAGTCC,-0.345
2,GGGGTGAC,0.284
3,CTGAGTTC,-0.0293
4,CTCACTCC,-0.0217
5,TACCCAAA,-0.006
6,CCGCAAAC,-0.00407
7,CCCTCGGC,-0.299
8,GAGTCTCC,-0.305
9,CAAATCTA,0.094
10,GCAAACAC,-0.0955
11,CTGTTCTC,-0.118
12,CGCGAACC,-0.159
13,AAGTTTTC,0.126
14,CGACAAAG,0.168
15,ATTCCTGC,0.108
16,GCACTACC,0.00421
17,AGGTAACA,0.146
18,GAATGAAC,0.0495
19,GCAATCCC,-0.0135
20,AAGCAGCG,-0.0975
21,ACAGTCGA,-0.102
22,AAAAGAAA,0.152
23,GAACCCGA,-0.197
24,CAGAACGC,-0.152
25,CTGCTTAC,0.00293

row,Sequence,PBM E-score
1,AGCCCACG,-0.106
2,ACAACAGC,0.133
3,AGTTCTGA,0.0643
4,CGCGTATC,0.0728
5,ATTCCGGG,-0.144
6,AGGTAATC,0.0388
7,AAAGGGCA,0.0801
8,ATAAGACA,0.0938
9,CAACTTCA,0.0717
10,TGGGAACA,-0.195
11,CATGAAGA,0.0998
12,AAGGGAGT,-0.222
13,GTCCTATA,-0.151
14,AGACGAAG,-0.117
15,AAATGCAA,0.037
16,CGACGATA,0.0441
17,AACGTGGA,0.0571
18,ACGCAAAG,0.131
19,AAAGTCCT,-0.124
20,GTGTCTAA,-0.00726
21,ACGACTTG,-0.223
22,AGGATCAA,0.0899
23,ATAATCTG,0.0267
24,AAATCCCT,-0.0649
25,ACCCCACC,0.159

row,Sequence,PBM E-score
1,CAAGATCA,-0.0132
2,CGACTCAG,-0.135
3,ACTTACTA,0.0502
4,CTTTCTAA,0.149
5,ATACCCCA,-0.0525
6,AGCGGCTC,0.204
7,AATCTGGA,0.0109
8,GGCCATAA,-0.21
9,CCGGATAC,-0.183
10,AATACATC,0.172
11,CGAGAGAG,-0.0538
12,GGCGGCCC,-0.351
13,AACATTCA,-0.0612
14,GTCGTTGA,0.0702
15,CCATTAGG,-0.202
16,CGAACGAG,-0.108
17,AATACGAC,0.0982
18,ACCTCACA,0.00428
19,CACCGCGG,-0.0133
20,ACCTCGAG,0.1
21,CATTATTA,0.253
22,CCTTAAAC,-0.0906
23,CGGACCGA,-0.0526
24,TGGGGACA,-0.191
25,GAGTCTCA,-0.292

row,Sequence,PBM E-score
1,AGACATTA,-0.0766
2,CAAAGGCG,-0.0672
3,ATTGTGAA,0.099
4,GCAAGGTA,0.00022
5,CAGCCCCA,-0.163
6,CCTATGAA,-0.17
7,GGATACAA,0.0721
8,CCCGAGGC,-0.215
9,ATGCCAAG,0.0101
10,CCAACTCG,-0.0873
11,ACGGGTTA,-0.184
12,CCTGCCGA,-0.293
13,TCCATAGA,-0.201
14,GTACACTA,-0.127
15,CTATGGCC,-0.271
16,CCCGGGAC,-0.291
17,TCACAAAA,0.256
18,CTTGTGTC,0.0256
19,CCCTGGAA,-0.325
20,AGCACGGA,-0.146
21,ACACACCC,-0.0768
22,TGGATAAA,0.0202
23,ACGTATCC,0.0374
24,CGTTGTCC,0.126
25,AGGTTCAT,-0.193

row,Sequence,PBM E-score
1,CGTAACTC,0.208
2,CATACCAC,0.0173
3,CCGCGTGC,-0.00633
4,GATTAAAA,0.242
5,CACATGGC,0.0183
6,AGAAGACC,-0.0866
7,ACAAATGG,0.121
8,CTGTACTA,0.155
9,CTACACGC,-0.263
10,AAGTTACA,0.175
11,TAGTGTGA,0.128
12,AGTCGCGA,-0.00441
13,AGCTATCC,-0.206
14,CGAGTAGA,-0.0314
15,ACAAAATC,0.219
16,ACTTGATG,0.205
17,GGGAATCA,-0.161
18,CAAAGCCG,-0.00593
19,ACAAAAGT,0.164
20,TAAAGGCA,0.146
21,AAGGGACG,-0.216
22,GAAGTAGC,-0.0862
23,AACCACAT,0.162
24,GATGGGGA,-0.334
25,GTGGCCAA,0.00877

row,Sequence,PBM E-score
1,GGCCTTTA,-0.15
2,ACCTGCGT,-0.059
3,CGCATACG,0.159
4,CCTTAAGG,0.0391
5,GGGTTGAA,-0.116
6,ATCAGTCC,-0.333
7,CGCTAGGA,-0.047
8,TATGTGAA,0.0102
9,GCCTAACC,-0.159
10,CAAAGTCC,-0.204
11,TAGAGTAA,0.121
12,AGATCAAG,0.083
13,AAGGTTCG,-0.124
14,GTTGGCAA,0.0281
15,CCGTGTCC,0.0181
16,ACGTATCA,0.26
17,CCAGGTAA,-0.113
18,AACTAATA,0.336
19,CAGCGCCG,0.146
20,CCCCTTCG,-0.211
21,GCACATAA,0.0294
22,CCAGGTAC,-0.278
23,AACCTGCC,-0.147
24,CGGAGAAA,-0.0341
25,CAGCAGAC,-0.14

row,Sequence,PBM E-score
1,CTATAGCC,-0.249
2,CGGTGCAC,-0.15
3,ACTATTCA,0.117
4,AAGCGCTT,0.169
5,CCGTATAC,-0.015
6,CCGAGACA,-0.083
7,ATCCGGTG,-0.00686
8,CATGGCCC,-0.129
9,TCCGTTAA,0.136
10,CGGTTCCC,-0.214
11,GGGACAAA,-0.0226
12,CTCCAGAC,-0.158
13,TAGGTTAA,0.102
14,CAACCGCC,-0.0607
15,CTTATGTC,0.105
16,GACTTTCA,-0.0832
17,GACAACCC,-0.166
18,AGCGGATG,-0.167
19,ATACACGG,0.127
20,TGATAGCA,0.0573
21,CTGTCCGC,-0.0972
22,AAATGATA,0.304
